In test [1] the target is T1, human BCMA on cells (human, UniProt Q02223 1-184).
T1 construct: whole, on cells; also called H929 cells; U266 cells
T1 sequence (looked up): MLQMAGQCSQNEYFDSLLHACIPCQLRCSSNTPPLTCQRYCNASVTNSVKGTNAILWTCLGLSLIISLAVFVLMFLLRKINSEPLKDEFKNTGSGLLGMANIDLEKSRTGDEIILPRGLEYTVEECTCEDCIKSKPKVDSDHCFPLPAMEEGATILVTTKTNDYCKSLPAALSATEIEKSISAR
The test can be described thus: FACS, H929 cells. As to the method: (§1) The desired cells were scale-up cultured in T-75 cell culture flasks to the logarithmic growth phase, and the cells were pipetted into a single cell suspension. After the cells were counted, the cells were centrifuged and the cell pellet was resuspended in FACS buffer (PBS+2% fetal calf serum) to 2×10⁶ cells per ml, and the suspension was added to the 96-well FACS reaction plate at 50 μl per well, then the sample to be tested of the chimeric antibody was added at 50 μl per well and the mixture was incubated at 4° C. for 1 h. The obtained mixture was centrifuged and washed 3 times with a PBS buffer. […] The obtained mixture was centrifuged and washed 3 times with a PBS buffer. 100 μl of the mixture was taken for detection and result analysis by FACS (FACS Canto™, purchased from BD Company). Data analysis was performed by software (FlowJo) to obtain the mean fluorescence intensity (MFI) of the cells. Then, a software (GraphPad Prism8) was used for analysis, data fitting and EC50 calculation. The results are shown in Table 10 and FIGS. 10A-10B, FIGS. 11A-11B, and FIGS. 12A-12B. All seven chimeric antibodies bind to three types of BCMA-expressing endogenous cells.
In general terms: A flow cytometer gives signals particle by particle.

The target of test [2] is T1, human BCMA on cells. The experiment in a line: FACS, RPMI8226 cells. The method, then:
as §1

In test [3] the target is T2, human BCMA-His protein (human, UniProt Q02223 1-54).
T2 construct: bought; also called human BCMA protein; not shown: His tag
T2 sequence (looked up): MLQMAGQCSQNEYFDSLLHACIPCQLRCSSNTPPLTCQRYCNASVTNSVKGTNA
The test can be described thus: ELISA, human BCMA-His coated; Ab 100 nM. As to the method:
(§2) The specific method was as follows: Human BCMA protein (purchased from Acro, catalog number: BCA-H522y) and monkey BCMA protein (purchased from Acro, catalog number: BCA-C52H7) were diluted with PBS to a final concentration of 1 μg/mL, respectively, and then added to a 96-well ELISA plate at 50 μl/well. The plate was sealed with a plastic film and incubated overnight at 4° C., the plate was washed twice with PBS the next day, and then a blocking solution [PBS+2% (w/v) BSA] was added for blocking at room temperature for 2 h. The blocking solution was discarded, the plate was washed 3 times with PBS, and 100 nM BCMA human-mouse chimeric antibody diluted gradiently or control antibody was added at 50 μl/well. After incubation at 37° C. for 2 h, the plate was washed 3 times with PBS. HRP (horseradish peroxidase)-labeled secondary antibody (purchased from Merck, catalog number: AP113P) was added, and incubated at 37° C. for 1 h, and the plate was washed 5 times with PBS. TMB substrate was added at 50 μl/well, and incubated at room temperature for 10 min, then a stop solution (1.0 M HCl) was added at 50 μl/well. The OD450 nm values were read by an ELISA microplate reader (Multimode Plate Reader, EnSight, purchased from Perkin Elmer). The results are shown in Table 7, Table 8 and FIGS. 7A-7B and FIG. 8A-8B. All chimeric antibodies have good binding activity with human BCMA protein; except that BCMA-mAb06 has no cross-binding activity with monkey BCMA protein and BCMA-mAb07 has weak binding to monkey BCMA protein, other chimeric antibodies have good binding activity with monkey BCMA protein. The IgG subtype control is human IgG1.

Test [4] addresses T1, human BCMA on cells. The test can be described thus: cell ELISA, Flp-inCHO-human BCMA cells; Ab 1.23 nM. An excerpt: (§3) The specific method was as follows: The required cells were scale-up cultured in a T-75 cell culture flask to the logarithmic growth phase, the medium was aspirated, the cells were washed twice with a PBS buffer, and then digested with trypsin. Then the digestion was terminated with a complete medium, and the cells were pipetted to obtain a single cell suspension. After the cells were counted and centrifuged, the cell precipitate was resuspended to 4×10⁵ cells per milliliter with a complete medium, and the suspension was added to a 96-well flat-bottomed cell culture plate at 100 μl/well, and cultured overnight in a 37° C., 5% carbon dioxide incubator. On the next day, the medium in the 96-well plate was discarded, the cells were washed once with PBS, and then fixed at room temperature for 0.5 h with an immunostaining fixative (purchased from Beyotime, catalog number: P0098-500 ml) at 50 μl/well. A blocking solution [PBS+5% (w/v) skim milk] was added for blocking at room temperature for 2 h. The blocking solution was discarded, the plate was washed 3 times with PBS, and 100 nM BCMA human-mouse chimeric antibody diluted gradiently or control antibody was added at 50 μl/well. After incubation at 37° C. for 2 h, the plate was washed 3 times with PBS. HRP (horseradish peroxidase)-labeled secondary antibody (purchased from Merck, catalog number: AP113P) was added, and incubated at 37° C. for 1 h, and the plate was washed 5 times with PBS. TMB substrate was added at 50 μl/well, and incubated at room temperature for 10 min, then a stop solution (1.0 M HCl) was added at 50 μl/well. The OD450 nm values were read by an ELISA microplate reader (Multimode Plate Reader, EnSight, purchased from Perkin Elmer). The chimeric antibodies bind well to Flp-inCHO-human BCMA cells. The IgG subtype control is human IgG1.
On the technique in general: ELISA stands for enzyme-linked immunosorbent assay.

Test [5] addresses T1, human BCMA on cells. The experiment in a line: cell ELISA, Flp-inCHO-human BCMA cells; Ab 0.002 nM.
Source text: as §3

For test [6], the target named is T3, monkey BCMA-His protein (monkey, UniProt A0A2K5UD97 1-53).
T3 construct: bought; monkey species not further stated for this product; also called monkey BCMA protein
The experiment in a line: ELISA, monkey BCMA-His coated; Ab 1 nM. As to the method:
as §2

T3 sequence (A0A2K5UD97 entry or part of it limits assumed): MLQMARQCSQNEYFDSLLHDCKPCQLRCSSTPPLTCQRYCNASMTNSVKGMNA

B1: BCMA-mAb07 (Fc fusion)
scFv: QVQLQQSGAELAKPGASVKLSCKASGYTFTDYWTHWVKQRPGQGLEWIGYINHGSGYTKYNQKFKDKATLTADKSSSTAYMQVSSLTYEDSAVYYCARLTGSYYFDYWGQGTTLTVSSGGGGSGGGGSGGGGSQIVLTQSPAIMSASPGEKVTMTCSASSSVSYMHWYQQKSGTSPKRWIYDTSKLASGVPPRFSGSGSGTSYSLTISSMEAEDAATYYCQQWSSNPLTFGAGTKLELK[human IgG1 Fc with C220S (EU numbers) not spelt out]
Take B1: the values for the concentration giving a half-maximal response (EC50) in test [1] and in test [2] were 7.45 nM and 6.38 nM, respectively. Also, the figures for the “Maximum mean fluorescence intensity” value in test [1] and in test [2] were 12200 and 2220, respectively. The results for the OD450 in test [3], in test [4] and in test [5] were 2.29, 0.76 and 0.1, respectively.

B2: BCMA-mAb03 (Fc fusion)
scFv: QIPLVQSGPELKKPGETVKISCKASGYTFTNYAMTWVKQAPGKGLKWMGWIDTYSGVPTYADDFKGRFAFSLETSATTAYLQINNLKNEDTATYFCARVGVYGGYDTLDSWGQGTSVTVSSGGGGSGGGGSGGGGSDIQMTQTTSSLSASLGDRVTISCSASQGISNHLNWYQQKPDGTVKLLIYYTSSLHSGVPSRFSGSGSGTDYSLTISNLEPEDFATYYCQQYNNLPWTFGGGTKLEIK[human IgG1 Fc with C220S (EU numbers) not spelt out]
For B2, the results for the EC50 in test [1] and in test [2] were 104 nM and 11.3 nM, respectively. The “Maximum mean fluorescence intensity” value in test [1] was found to be 7790; in test [2] it was 1490. The OD450 in test [6] was 1.73; in test [3], 3.2; in test [4] it was 0.67; in test [5] it was 0.08.

B3: BCMA-mAb04 (Fc fusion)
scFv: QVQLQQSGAELARPGASVDLSCKASGYSFTSYGISWVKLRTGQGLEWIGEIYPRDDITYYNEKFKGKTTLTADKSSSTAYMELRSLTSEDSAVYFCARHDYYYVNSVSAMDYWGQGTSVTVSSGGGGSGGGGSGGGGSDIVMSQSPSSLAVSVGEKVTMSCKSSQSLLYSSNQKNYLAWYQQKPGQSPKLLIYWASTRYSGVPDRFTGSGSGTDFTLTVSSVRAEDLALYYCQQYYIYPWTFGGGTKLEIK[human IgG1 Fc with C220S (EU numbers) not spelt out]
Consider B3, for which the results for the EC50 in test [1] and in test [2] were 167 nM and 26 nM, respectively. Besides, the figures for the “Maximum mean fluorescence intensity” value in test [1] and in test [2] were 7070 and 1290, respectively. Also, the OD450 in test [6] came out at 1.85; in test [3], 2.63; in test [4], 0.68; in test [5], 0.07.

B4: BCMA-mAb01 (Fc fusion)
scFv: EVKLVESGGGLVQPGGSLKLSCAASGFTFSDFYMYWVRQTPEKRLEWVAYITNGGENTYFPDTVKGRFTISRDNAKNTLYLQMSRLKSEDTAMYYCARQNPFYYYDSNYDYAMDFWGQGTSVTVSSGGGGSGGGGSGGGGSDVVMTQTPLTLSVTIGQPASISCKSSQSLLYSNGKTYLSWLFQRPGQSPKRLIYLVSELDSGVPDRFTGSGSGTDFTLKISRVEAEDLGIYYCVQGTHFPHTFGGGTKLEIK[human IgG1 Fc with C220S (EU numbers) not spelt out]
Regarding B4, the EC50 (in general, the concentration that produces a half-maximal response) turned out to be 9.02 nM in test [1] and 3.3 nM in test [2]. In addition, the “Maximum mean fluorescence intensity” value in test [1] is 8390; in test [2], 1580. The OD450 in test [6] was determined as 2.08; in test [3] it was 2.89; in test [4] it was 0.7; in test [5], 0.09.

B5: BCMA-mAb05 (Fc fusion)
scFv: QGQMQQSDAELVKPGASVQISCKASGYMFTDHTFHWMRQRPEQGLEWIGYIYPRDDNTKYNEKFKGKATLTADKSSSTAYIHLNSLTSEDSAVYFCARAGYYGSSHAMDYWGQGTSVTVSSGGGGSGGGGSGGGGSDIVMTQSHKFMSTSVGDRVSITCKASQDVSTAVAWYQQKPGQSPRLLIYSASSRYTGVPDRFTGSGSGTDFTFTISSVQTEDLAVYYCQQLYSTPWTFGGGTKLEIK[human IgG1 Fc with C220S (EU numbers) not spelt out]
With B5, the EC50 in test [1] worked out at 12.4 nM; in test [2] it was 12.1 nM. For the same molecule, the “Maximum mean fluorescence intensity” value in test [1] came to 11000; in test [2] it was 2230. Also, the OD450 in test [6] worked out at 1.87; in test [3], 2.14; in test [4], 0.84; in test [5], 0.09.

B6: BCMA-mAb02 (Fc fusion)
scFv: EVQLVESGGDLVQPGESLKLSCESNAYEFPSYDMSWVRKTPEKRLELVAAINSDGGITYYPDTMERRFIISRDNTKKTLYLQMSSLRSEDTALYYCARHGYGGGAYVLDYWGQGTSVTVSSGGGGSGGGGSGGGGSDIVMTQSQKFMSTTVGDRVRITCKASQNVGTAVAWYQQKPGQSPKVLIYSASSRYTGVPDRFTGSGSGTDFTLTINNMQSEDLADYFCQQYSNYHLTFGTGTKLELK[human IgG1 Fc with C220S (EU numbers) not spelt out]
On to B6, for which the EC50 in test [1] came out at 16.5 nM; in test [2], 4.63 nM. Moreover, the “Maximum mean fluorescence intensity” value in test [1] came out at 8770; in test [2], 1430. In addition, the OD450 in test [6] is 1.32; in test [3], 2.77; in test [4], 0.87; in test [5], 0.08.

B7: BCMA-mAb06 (Fc fusion)
scFv: EVKLLQSGGGLVQPGGSLKLSCAASGIDFSRYWMSWVRRAPGKGLEWIGEINPDSSTINYAPSLKDEFIISRDNAKNTLYLQMSKVRSEDTALYYCAIFYYANYYAMDYWGQGTSVTVSSGGGGSGGGGSGGGGSDIVMTQSQKFMSTSVGDRVSVTCKASQNVDTNVAWYQQKPGQSPKALIYSASYRFSGVPDRFTGSGSGTDFTLTISNVQSEDLAEYFCQQYNGYPFTFASGTKLEIK[human IgG1 Fc with C220S (EU numbers) not spelt out]
On to B7, for which the EC50 in test [1] is 3.39 nM; in test [2], 2.28 nM. For the same molecule, the “Maximum mean fluorescence intensity” value in test [1] is 11700; in test [2], 2860. For the same molecule, the OD450 in test [6] is 0.15; in test [3] it was 2.53; in test [4], 0.99; in test [5] it was 0.09.

The values are drawn from patent US20250297021A1 (SHANDONG SIMCERE BIOPHARMACEUTICAL CO NO 1, published 2025).
